Assay results as given in patent US20250075002A1 (BEIGENE SWITZERLAND, published 2025).

Experiments:
[1] = molecular target: HMFG1 (Abcam, cat. #ab215670); assay: competitive FACS: serially diluted soluble MUC1 blocks the binding of 3 µg/ml HMFG1 to human MUC1 expressing cells
[2] = molecular target: HMFG1 (Abcam, cat. #ab215670); assay: competitive FACS: serially diluted soluble MUC1 blocks the binding of 0.3 µg/ml HMFG1 to human MUC1 expressing cells
[3] = molecular target: HMFG1 (Abcam, cat. #ab215670); assay: as above; remark: listed apart in the source

Chain of HMFG1 (Abcam, cat. #ab215670) (VH, as listed by the source, chain 1 of 2): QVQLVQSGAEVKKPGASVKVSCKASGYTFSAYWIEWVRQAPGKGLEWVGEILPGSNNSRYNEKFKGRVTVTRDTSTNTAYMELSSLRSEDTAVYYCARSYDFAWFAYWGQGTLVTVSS
Chain of HMFG1 (Abcam, cat. #ab215670) (VL, as listed by the source, chain 2 of 2): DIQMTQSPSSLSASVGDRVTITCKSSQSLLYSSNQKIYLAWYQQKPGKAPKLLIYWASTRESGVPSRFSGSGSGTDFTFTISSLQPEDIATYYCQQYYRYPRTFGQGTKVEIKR

- IC50 (read off the curve) [1]: ~30 U/mL
- IC50 (read off the curve) [2]: ~5 U/mL
- IC50 (read off the curve) [3]: ~6 U/mL
B1: soluble MUC1 (Shanghai Linc-Bio Science Co. LTD) (other)
chain: not shown
notes: the bought preparation is not described
